Test results as given in the supplement of paper PMC8285479.
Where a name gives a salt, the structure may show the parent alone. ± gives the standard deviation of the averaged measurements. Over roughly 1,900 compounds, “normalised cell viability (NPI; 0 = phenylarsine oxide control, 1 = DMSO control)” has its median near 1; the lowest 2% begin near 0.039. This is one part of the list.

Test system: NCI-H1944
Experiment: normalised cell viability (NPI; 0 = phenylarsine oxide control, 1 = DMSO control) (fraction of DMSO control); NCI-H1944 is a non-small cell lung cancer line; higher = more viable cells (less compound toxicity)
Details: 6 days
[1] = glucocorticoid arm: hydrocortisone 2.75 uM co-treatment, compound 1 µM
[2] = glucocorticoid arm: hydrocortisone 2.75 uM co-treatment, compound 5 µM
[3] = glucocorticoid arm: hydrocortisone 2.75 uM pre-treated 2 days and continued, compound 1 µM
[4] = glucocorticoid arm: hydrocortisone 2.75 uM pre-treated 2 days and continued, compound 5 µM
[5] = glucocorticoid arm: vehicle, compound 1 µM
[6] = glucocorticoid arm: vehicle, compound 5 µM
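Also: CTB read-out in 384-well plates, mean of triplicate wells, normalised per plate against 1 µM phenylarsine oxide and 0.1% DMSO, compounds added 24 h after seeding.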

SMILES | normalised cell viability [1] | normalised cell viability [2] | normalised cell viability [3] | normalised cell viability [4] | normalised cell viability [5] | normalised cell viability [6]
CNC(=O)c1nn(C)c2c1C(C)(C)Cc1cnc(Nc3ccc(N4CCN(C)CC4)cc3)nc1-2 | 0.485 ± 0.019 | 0.306 ± 0.002 | 0.549 ± 0.019 | 0.424 ± 0.013 | 0.282 ± 0.0098 | 0.126 ± 0.0072
CC(=O)NC(C(=O)O)C(C)(C)SN=O (stereo not drawn) [S-Nitroso-N-acetylpenicillamine] | 0.998 ± 0.014 | 1 ± 0.026 | 1.01 ± 0.011 | 0.987 ± 0.023 | 0.9937 ± 0.0011 | 0.9943 ± 0.0055
CC(C)(F)C[C@H](N[C@@H](c1ccc(-c2ccc(S(C)(=O)=O)cc2)cc1)C(F)(F)F)C(=O)NC1(C#N)CC1 [Odanacatib (MK 0822)] | 0.983 ± 0.023 | 1.03 ± 0.023 | 1 ± 0.017 | 1.04 ± 0.011 | 1.003 ± 0.0064 | 1 ± 0.013
O=c1[nH]c(=O)n([C@H]2C[C@H](O)[C@@H](CO)O2)cc1F [Floxuridine] | 0.36 ± 0.036 | 1.07 ± 0.026 | 0.52 ± 0.019 | 1.05 ± 0.017 | 0.272 ± 0.011 | 1.01
CNNCc1ccc(C(=O)NC(C)C)cc1 [Procarbazine hydrochloride; Procarbazine] | 1.01 ± 0.011 | 0.905 ± 0.032 | 1.013 ± 0.0058 | 0.963 ± 0.013 | 1.001 ± 0.0085 | 0.9143 ± 0.0055
NS(=O)(=O)c1cc2c(cc1Cl)NCNS2(=O)=O [Hydrochlorothiazide] | 1.001 ± 0.0076 | 0.985 ± 0.0061 | 1.01 ± 0.018 | 1 ± 0.025 | 0.989 ± 0.01 | 0.991 ± 0.004
O=C1C(=O)N(Cc2ccc(Cl)c(Cl)c2)c2ccccc21 [Apoptosis Activator 2] | 0.987 ± 0.015 | 1.01 ± 0.018 | 0.998 ± 0.011 | 1.02 ± 0.016 | 0.9993 ± 0.0059 | 1.002 ± 0.0084
C[N+]1(C)CCC(=C(c2ccccc2)c2ccccc2)CC1 [Diphemanil Methylsulfate] | 1.03 ± 0.015 | 0.995 ± 0.035 | 1.03 ± 0.015 | 1.02 ± 0.026 | 1.013 ± 0.0058 | 0.995 ± 0.0087
CN(C)CCc1c[nH]c2ccc(C[C@H]3COC(=O)N3)cc12 [Zolmitriptan] | 1.02 ± 0.022 | 0.985 ± 0.025 | 1.03 ± 0.01 | 1.02 ± 0.011 | 1.007 ± 0.0058 | 0.9937 ± 0.0078
CN(C)CCC=C1c2ccccc2C=Cc2ccccc21 [Cyclobenzaprine hydrochloride] | 0.998 ± 0.011 | 0.986 ± 0.021 | 1.01 | 1.02 ± 0.014 | 0.997 ± 0.015 | 0.9983 ± 0.0029
COc1cc2c(cc1OC)[C@@H](c1ccccc1)CN(C)CC2 | 0.9913 ± 0.006 | 1.023 ± 0.0058 | 1.02 ± 0.011 | 1.01 ± 0.019 | 0.9883 ± 0.0015 | 0.9863 ± 0.0055
NC(=O)c1ncn([C@@H]2O[C@H](CO)[C@@H](O)[C@H]2O)c1N [Acadesine] | 1.01 ± 0.015 | 1 ± 0.012 | 1.02 ± 0.011 | 1.02 ± 0.041 | 0.998 ± 0.014 | 0.9957 ± 0.0075
CC1=C(/C=C/C(C)=C/C=C/C(C)=C/C(=O)Nc2ccc(O)cc2)C(C)(C)CCC1 [Retinoic acid p-hydroxyanilide] | 1.01 | 1.03 ± 0.026 | 0.9903 ± 0.0021 | 1.07 ± 0.017 | 0.999 ± 0.0017 | 0.963 ± 0.005
C[C@@H]1C(=O)O[C@H]2C[C@@]34[C@H]5C[C@@H](C(C)(C)C)[C@]36[C@@H](OC(=O)[C@@H]6O)O[C@@]4(C(=O)O5)[C@]21O [Ginkgolide A] | 0.9947 ± 0.0084 | 0.986 ± 0.01 | 0.994 ± 0.016 | 0.997 ± 0.02 | 1.002 ± 0.0072 | 0.9947 ± 0.0051
CC1=C(C(=O)OC2CCCCC2)C(c2ccc([N+](=O)[O-])cc2)C2=C(CC(C)(C)CC2=O)N1 (stereo not drawn) | 1.03 ± 0.025 | 1.02 ± 0.023 | 1.03 ± 0.015 | 1.02 ± 0.026 | 1.017 ± 0.0058 | 1.003 ± 0.0058
CC(=O)Oc1cc(C(C)C)c(OCCN(C)C)cc1C [Moxisylyte hydrochloride] | 0.9967 ± 0.0058 | 0.977 ± 0.052 | 1 ± 0.028 | 0.964 ± 0.04 | 1.01 | 1.02 ± 0.028
CC(C)N(CCCNC(=O)Nc1ccc(C(C)(C)C)cc1)C[C@H]1O[C@@H](n2cc(Br)c3c(N)ncnc32)[C@H](O)[C@@H]1O | 1.033 ± 0.0058 | 1.1 ± 0.029 | 1.03 ± 0.01 | 1.063 ± 0.0058 | 1.01 ± 0.013 | 1.017 ± 0.0058
CC1=C(CC(=O)O)c2cc(F)ccc2/C1=C\c1ccc(S(C)(=O)=O)cc1 [Sulindac sulfone] | 1.001 ± 0.0081 | 1.02 ± 0.015 | 1.01 ± 0.024 | 1 ± 0.011 | 1.002 ± 0.0072 | 1.003 ± 0.0061
NC(N)=NC(=O)c1nc(Cl)c(N2CCCCCC2)nc1N [5-(N,N-hexamethylene)amiloride] | 0.995 ± 0.005 | 0.927 ± 0.015 | 0.9913 ± 0.009 | 1.04 ± 0.021 | 0.974 ± 0.007 | 0.723 ± 0.16
O=C(c1ccc2c(c1)OCCO2)N1CCCCC1 | 1.005 ± 0.0092 | 1 ± 0.017 | 1.01 | 1 ± 0.017 | 0.9913 ± 0.0096 | 0.9947 ± 0.0021
COc1c/c(=C2\C=c3ccccc3=N2)[nH]/c1=C\c1[nH]c(C)cc1C [Obatoclax mesylate (GX15-070)] | 0.972 ± 0.014 | 0.42 ± 0.019 | 1 ± 0.0087 | 1.03 ± 0.015 | 0.564 ± 0.07 | 0.0292 ± 0.0041
CC(C)CN(C)c1nc(N)c(C(=O)N=C(N)N)nc1Cl [5-(N-Methyl-N-isobutyl)amiloride] | 0.998 ± 0.03 | 1.06 ± 0.042 | 1.01 ± 0.01 | 1.02 ± 0.021 | 1.003 ± 0.0061 | 1.02
CC(C)[C@H]1c2ccc(F)cc2CC[C@@]1(CCN(C)CCCc1nc2ccccc2[nH]1)OC(=O)C1CC1 | 0.9943 ± 0.0051 | -0.000718 ± 0.00075 | 1.013 ± 0.0058 | 1.08 ± 0.035 | 0.989 ± 0.0095 | -6.33e-05 ± 0.0017
